According to paper PMC12136788:
Some of the results follow.

T1: UNK ZnF1-3 (human, UniProt Q9C0B0 31-174)
T1 sequence: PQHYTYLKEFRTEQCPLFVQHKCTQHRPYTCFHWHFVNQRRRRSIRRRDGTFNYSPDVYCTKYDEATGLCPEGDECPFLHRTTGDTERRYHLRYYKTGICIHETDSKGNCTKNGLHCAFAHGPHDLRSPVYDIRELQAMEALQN

B1: chr6:38652254:38652255:-_ENSG00000124767_ENST00000373365|hu_hu|hu_hu_hu_mus_False|58_78 (ssRNA)
RNA: GGGAGUUCUACAGUCCGACGAUCCGAGAACUUCAUAGCAGGGAAGUCAAGCUUCUGGAUUAGCGUCAGUCCAAGAACUCUAGUAUAAAAAUCCAGGGACUUCUUAGGAUCCUUAAUUCUUAGCAUCGUUUGCUGCAGUAGAAACAACAGAGGAUUGAGCAUCA
B2: chr1:130270616:130270617:-_ENSMUSG00000026356_ENSMUST00000027602|mus_mus|motif|central (ssRNA)
RNA: GGGAGUUCUACAGUCCGACGAUCGUAAUGAUAAUUAAAGGCCAUUUCAAUAUCCAAACCAACAAAUUCAGUCAGAUGUCGGUGGGUAUUGGAGUCUUCAGCUCUGAAAACUGGUCCAAUGCAGAAAACCUUCUCAAAAUCAGCCAACAGAGGAUUGAGCAUCA
B3: chrX:69798090:69798091:-_ENSMUSG00000031343_ENSMUST00000055966|mus_mus|mus_mus_mus_hu_False|38_58 (ssRNA)
RNA: GGGAGUUCUACAGUCCGACGAUCAAGUCCCCGGGUUCUUGUCGUCUUGAUUCCCCUUGACCAGUGGUUCCAGGGAGAAUACUAAUCAGGAAAAGAAGUACAACUCUGGUCAUGUAACAGUGACUUGUUUGUGUGAUUAUCAUCCAACAGAGGAUUGAGCAUCA
B4: 111050710_111050830_356_CDS_ENSMUSG00000021700_ENSMUST00000167824|mouse|control|control (ssRNA)
RNA: GGGAGUUCUACAGUCCGACGAUCCUCAUUUUUGAAUACAGUUUUUACUUUGAAAUCGAUGCCAACCGUGCUGACGAAUGCAGAUGUAAAGGAAUCGUCGGCAUAACGGAACAGGAAAGAUGUUUUGCCCACGCUGCUAUUGCCCAACAGAGGAUUGAGCAUCA
B5: chr12:103221452:103221453:+_ENSMUSG00000041781_ENSMUST00000047357|mus_hu|FALSE|FALSE (ssRNA)
RNA: GGGAGUUCUACAGUCCGACGAUCAUAAACAGGAAUGGUUGCAUAGAUAGCACAGUUCAGACCCAACUUUCCGACAGCAUACGGGAGGGCACCAAGGUGGAGAGGAUCAGGGUGAGACAACAGCACUGCAUCAAUCUGGUGAACCAACAGAGGAUUGAGCAUCA
B6: 61985779_61985899_2350_3pUTR_ENSMUSG00000021929_ENSMUST00000022496|mouse|control|control (ssRNA)
RNA: GGGAGUUCUACAGUCCGACGAUCAAAAAAUUAGGUAUAAUGGCGAAAGCAUUACCAUUGAUAUCUAAAGCUCUUCCUCCAACCCUGGCUUCUGAGGCAGAUAAUAAACACAUCAAUUAAUGGUAGGUGAAGUACAGUUUUAAACAACAGAGGAUUGAGCAUCA
B7: chr17:2570287:2570288:+_ENSG00000007168_ENST00000397195|hu_hu|motif|central (ssRNA)
RNA: GGGAGUUCUACAGUCCGACGAUCCUGACCAAGAGGUCCACCUGACGUAAAUUCUUCUUUUGCUUCAUUUAGCUUUGAUUCGGAUUCCAUAACCUUCUUUUGUAAUCUAAUAACAGAUGUCCAUUUUUUUUCCAAAAGACCAGCCAACAGAGGAUUGAGCAUCA
B8: chr2:216981417:216981418:+_ENSG00000079246_ENST00000392132|hu_hu|FALSE|FALSE (ssRNA)
RNA: GGGAGUUCUACAGUCCGACGAUCCUGAUACUGAUCCCCACCAGAAAGGGGAUUGUCAGUGCCAUCUGUACCAAACAGGACUAAAGCAAUCUCAUCCUUGUUCUCAGCAAACACCUGUCGCUGUACAAACAUGGUUAUCACCUUCAACAGAGGAUUGAGCAUCA
B9: chr12:48362563:48362564:+_ENSG00000134291_ENST00000256686|hu_hu|hu_hu_hu_mus_False|1_78 (ssRNA)
RNA: GGGAGUUCUACAGUCCGACGAUCUCCGUCAAGCCCUUCGAUAGACCCUUGCGGGGGUGGUAAAAACCACUUUGUAUGGGGAAGGAAAAGAAACGCCAAAAACUUUCCAAAAAGCGGGGGUGGGGUGAGGCGGGAGGUUGGGAACAACAGAGGAUUGAGCAUCA
B10: chr13:110848956:110848957:-_ENSMUSG00000021700_ENSMUST00000167824|mus_hu|FALSE|FALSE (ssRNA)
RNA: GGGAGUUCUACAGUCCGACGAUCAGGUACCAACACCAAAGCUCUUGGAAGAAUCGAUUUGGAACAGUUCAGGUUUAUUCCUAAGGGUAUCUAGAGGAGUGAAAGUGGUCAGGUAAUGAGUAGCAAAGGAAAAUAAAUUCAUACCAACAGAGGAUUGAGCAUCA
B11: chr2:202488911:202488912:-_ENSG00000155755_ENST00000286196|hu_mus|hu_hu_hu_mus_False|18_28 (ssRNA)
RNA: GGGAGUUCUACAGUCCGACGAUCAUUGAAACAUUUUUCAUAAUCUCCAGUAGCAUUUCAGCAUUAUGUAACAAAAGCUCAAUUGUAAAUACAUGUAUCUUAUAAAAAUAAAAAUACAUUUAAAAACGGGGAGCGCAGGCGCCACAACAGAGGAUUGAGCAUCA
B12: chr21:38862523:38862524:+_ENSG00000157540_ENST00000338785|hu_mus|FALSE|FALSE (ssRNA)
RNA: GGGAGUUCUACAGUCCGACGAUCUCGGAAGUUGGUGUUUCUCAACAAAUCAUAGAGAUUAUAGGACAGCAUUUCAAACACUAAACAGAGAUGGUUUCGAAACAUAAAGUGGCGUUUCAAAUGCACUAUGUAGUACUUCAUUUCCAACAGAGGAUUGAGCAUCA
B13: chr19:16212804:16212805:+_ENSG00000167460_ENST00000300933|hu_mus|hu_hu_hu_mus_False|1_48 (ssRNA)
RNA: GGGAGUUCUACAGUCCGACGAUCAACAAUUCUGGAGUGAAGGAAAGAUGUAACAUGGAACAGCAUUAAAGCUCAGUCAGAAGGCACGUGGGUAAUUAUGAUCACCCCAGCAUUCUCGCUUGGAAUGCUUAAAGACAGAUGUUUCAACAGAGGAUUGAGCAUCA
B14: chr16:8843179:8843180:+_ENSMUSG00000022507_ENSMUST00000023150|mus_mus|FALSE|FALSE (ssRNA)
RNA: GGGAGUUCUACAGUCCGACGAUCUGGGGGAGCUCUAGAGUUUCGUGGUGGAGGAACCUUUCCACACAGGAAGCUGAUCAAAUCUUCUCUACGAAUAGUUCUUCUGCGCUUUUUUACCCAGGCCAGCACAUCCUUAUUGCGUCGCAACAGAGGAUUGAGCAUCA
B15: chr3:152055631:152055632:+_ENSMUSG00000025437_ENSMUST00000117492|mus_hu|motif|central (ssRNA)
RNA: GGGAGUUCUACAGUCCGACGAUCAGAGUCAGGGUGAUUUAGGACAAUGAAAAAGUUUUCAAAGCAAAAGUAUUUACAACACGGCAAAGGAUACUAUGGAUCUGCAUGUAGUGUAAAGAUUAAAGAUAACCUACUGAUUUCACACAACAGAGGAUUGAGCAUCA
B16: chr16:18284709:18284710:-_ENSMUSG00000022718_ENSMUST00000009321|mus_mus|FALSE|FALSE (ssRNA)
RNA: GGGAGUUCUACAGUCCGACGAUCAACCACUGCCUCAAUUAUUGGAAAUCACAAUGCACUCAGCUUAAAAGAUUGACGUCUAAGUGAGUCUAUCUUCAUGCCAAAGUGGCACCUUUCUUCUUCCACCUGUGGCGCCCGCGACCUCAACAGAGGAUUGAGCAUCA
B17: 187351112_187360007_290_CDS_ENSG00000065548_ENST00000337859|human|control|control (ssRNA)
RNA: GGGAGUUCUACAGUCCGACGAUCCUUCUGUUGCUUUGCUCCUUUCUUAUUCUUCAAACCGAAAGUUUUGUCUUCGAUAAUCUUCUCCUUCUUUUUUUGCUCCGCCUUUUUGCUGCCCCCGGCCUGAGCCUGUUUCUUGGGGGGCAACAGAGGAUUGAGCAUCA
B18: chr4:101300647:101300648:+_ENSMUSG00000028528_ENSMUST00000094953|mus_mus|FALSE|FALSE (ssRNA)
RNA: GGGAGUUCUACAGUCCGACGAUCGGUGCCAUGUGAUGAGCCUGUCGGGCUGGUGGCAGCGGAUUUGCUCCCCAUUCCAAAACCUCCUGGUUUGGUGUGCCAGUCCCAACCUCCAGCAAUGUCGGGCUGGAUGUUCACAGCAGGCAACAGAGGAUUGAGCAUCA
B19: chr13:49821539:49821540:+_ENSMUSG00000037851_ENSMUST00000165316|mus_hu|FALSE|FALSE (ssRNA)
RNA: GGGAGUUCUACAGUCCGACGAUCUUCCCGAGCCAUUCCUUCAUCUACCAUUGACUGGUCAGGAGUGACAUCUAAGAGGACCAAAGCCUGAGCAUCUGAGUGUGCUUCAAAUUGCGCAGUCCCACCUGUGGCCUGAUCAAAGGUCAACAGAGGAUUGAGCAUCA
B20: 61749448_61749568_4601_CDS_ENSG00000171316_ENST00000423902|human|control|control (ssRNA)
RNA: GGGAGUUCUACAGUCCGACGAUCGAGGUCAUUUUGGGGAUUCCAGUCUGAAUCAAAGAUGAUGCAGGUAUCAGCAGCAGUGAGGUUAAUGCCUAAACCUCCUGCCCUUGUACACAGGAGGAAAACAAACCUAUCAGAAUCAGGCAACAGAGGAUUGAGCAUCA
B21: chr1:225611761:225611762:-_ENSG00000143815_ENST00000272163|hu_mus|hu_hu_hu_mus_True|1_98 (ssRNA)
RNA: GGGAGUUCUACAGUCCGACGAUCCCAGGCCAUCGGCCUCUUACCACUUCACCCUCAACAAACUUCCUACUUGGCAUUUUCUAAAAUUAGUCUGGCCGCGCUCCGGCGGGAACUCCAGCCACUCCAGGACAGUCACCCGCACAGCAACAGAGGAUUGAGCAUCA
B22: chr2:24917620:24917621:+_ENSMUSG00000006476_ENSMUST00000102931|mus_hu|motif|central (ssRNA)
RNA: GGGAGUUCUACAGUCCGACGAUCCAAGAAAUGCUGCUUCCCUUUGAAUUGUUUCGGGGGUGUAGAAAUUGCACUUAUUUCGGUGAACCCCAUGGAGGGAUGCCCACAGCUGAGCCUCCAGGCGAGGCAUGGCAGGUCAGUGCCCAACAGAGGAUUGAGCAUCA

The binders below were run against T1, UNK ZnF1-3 (assay: nsRBNS (natural sequence RNA bind-n-seq); RBNS binding buffer (assumed for nsRBNS): 25 mM Tris pH 7.5, 150 mM KCl, 3 mM MgCl2, 0.01% Triton X-100, 500 ug/ml BSA, 20 U/ml SUPERase-In, 4 C; UNK is unkempt and MSI1 is Musashi-1; names of the RNAs are library labels; protein concentration not given here; high values mean tight binding).
In the case of B1, the binding signal is reported as 1.14 enrichment R. B2 gave a binding signal of 1.18 enrichment R. In the case of B3, the binding signal is reported as 0.697 enrichment R. In the case of B4, the binding signal is reported as 0.91 enrichment R. In the case of B5, the binding signal is reported as 1.88 enrichment R. B6 was tested, and the binding signal was 1.14 enrichment R. For B7, the binding signal was 1.03 enrichment R. In the case of B8, the binding signal is reported as 0.791 enrichment R. Work on B9 yielded a binding signal of 1.91 enrichment R. Binder B10 has a binding signal of 2.07 enrichment R. In the case of B11, the binding signal is reported as 1.41 enrichment R. In the case of B12, the binding signal is reported as 0.866 enrichment R. Work on B13 yielded a binding signal of 1.28 enrichment R. Binder B14 has a binding signal of 0.785 enrichment R. Binder B15 has a binding signal of 1.02 enrichment R. B16 was tested, and the binding signal was 1.11 enrichment R. With B17 the binding signal was 0.432 enrichment R. Binder B18 has a binding signal of 0.809 enrichment R. In the case of B19, the binding signal is reported as 0.679 enrichment R. Work on B20 yielded a binding signal of 1.23 enrichment R. Binder B21 has a binding signal of 1.2 enrichment R. In the case of B22, the binding signal is reported as 0.889 enrichment R.
